# Laboratory results published in PubChem BioAssay AID463173 (ICCB-Longwood Screening Facility, Harvard Medical School, 2010).
# The campaign covered roughly 52,000 compounds. About 4,300 (8.3%) were called active. No stated cut-off is given here; in the data, active means survival mostly below about 52% (no sharp cut-off); inactive means mostly above about 56%. This is one part of the list.
# Test system: DeltatarO mutant
# Assay: growth inhibition of S. aureus wild type versus tarO mutant, primary screen, teichoic acid synthesis inhibitors, RN4220, OD600 (AID 463173)
# Details: OD600, 18 h, hits give low values, screened at 18.75 µg/mL (by protocol)
row,Structure (SMILES),survival
1,COc1ccc(CNC(=O)CSc2nc3ccsc3c(=O)n2Cc2ccccc2Cl)cc1,inactive: 42%
2,CCc1ccc(N2C(=O)CC(c3cc(OC)ccc3OC)C3=C2COC3=O)cc1 (stereo unspecified),inactive: 68%
3,O=C(Nc1ccc2oc(-c3cccnc3)nc2c1)c1ccc(-c2ccc(Cl)cc2)o1,inactive: 73%
4,Cc1cc2oc(C(=O)Nc3sc4c(c3C(=O)NCC3CCCO3)CCC4)cc(=O)c2cc1C (stereo unspecified),active: 36%
5,O=C(CSc1nnc(-c2ccc(NS(=O)(=O)c3ccccc3)cc2)o1)NCC1CCCO1 (stereo unspecified),inactive: 73%
6,Cc1cccc(NC(=S)N(CCN(C)C)Cc2cc3cc4c(cc3[nH]c2=O)OCO4)c1,inactive: 80%
7,Cc1ccc(NC(=O)Cn2ncn3c(cc4ccccc43)c2=O)c(C)c1,active: 45%
8,CCOc1ccc(C2CC(=O)n3nc(-c4ccc(C)cc4)nc3S2)cc1 (stereo unspecified),inactive: 70%
9,O=c1[nH]c(C2CCCNC2)nc2c1nnn2Cc1ccccc1 (stereo unspecified),inactive: 98%
10,CCn1c(=O)c2cc(C(=O)NC3CCCCCC3)sc2c2ccccc21,inactive: 56%
11,CCOC(=O)c1sc(NC(=O)c2nc3ncccn3n2)c(C(=O)OC)c1C,inactive: 51%
12,O=S(=O)(NCc1ccccc1)c1ccc(-c2cnc(C3CC3)o2)cc1,inactive: 71%
13,CC(NC(=O)c1ccc2c(c1)N(Cc1ccc(Cl)cc1)C(=O)c1ccccc1S2(=O)=O)c1ccccc1 (stereo unspecified),inactive: 90%
14,CCOc1cc2sc(N3CCC(C(=O)Nc4ccc(C)cc4)CC3)nc2cc1Br,inactive: 83%
15,CCCCCn1c(=N)c(S(=O)(=O)c2ccccc2)cc2c(=O)n3ccccc3nc21,inactive: 85%
16,CCOc1ccc(CCNC(=O)Cn2nc(CC)n3c(cc4sc(CC)cc43)c2=O)cc1OCC,inactive: 76%
17,Cc1oc2ncn(CC(C)C)c(=O)c2c1C(=O)N1CCN(c2ccc(F)cc2)CC1,inactive: 90%
18,COc1ccccc1CNc1ccc(-c2nc(C)no2)cc1[N+](=O)[O-],inactive: 68%
19,O=C(c1ccc(C(F)(F)F)cc1)N1CCC(c2nc(-c3ccc(S(=O)(=O)N4CCCC4)cc3)no2)CC1,inactive: 88%

row,Structure (SMILES),survival
1,COc1nc(-c2ccc(C)cc2)ccc1-c1noc(-c2ccccc2Br)n1,active: 19%
2,COc1cc(OC)c(NC(=O)CCCn2nc(C)c3sc4ccccc4c3c2=O)cc1Cl,inactive: 61%
3,COC(=O)c1ccc(Cl)cc1NC(=O)N1CCCn2nc(C)cc21,inactive: 94%
4,COc1ccc(C(c2nnnn2C2CCCCC2)N2CCC(C)CC2)cc1OC (stereo unspecified),inactive: 97%
5,O=c1c2cccnc2n(Cc2ccccc2F)c(=O)n1Cc1ccccc1Cl,inactive: 62%
6,Cc1ccc(C)c(N2CCN(C(=O)CN3CCSc4ccc(S(=O)(=O)N(C)C)cc43)CC2)c1,inactive: 102%
7,COc1ccc(-c2nc3sc(-c4ccc(OC)cc4)nc3s2)cc1,inactive: 95%
8,Cc1ccc(C(c2nnnn2Cc2ccccc2)N2CCC(C)CC2)cc1 (stereo unspecified),inactive: 70%
9,CCOC(=O)c1c(C)[nH]c(C)c1S(=O)(=O)N1CCC(C(=O)N2CCN(c3ccc(Cl)cc3)CC2)CC1,inactive: 98%
10,COc1ccc(-n2c(=O)c3c4c(sc3n(Cc3ccccc3)c2=O)CN(C(C)=O)CC4)cc1OC,inactive: 67%
11,COc1ccccc1NC(=O)c1ccc2c(Cl)c3c(nc2c1)CCCC3,active: 15%
12,CC1=C(c2ccc(C)c(C)c2)S(=O)(=O)N=C1N1CCC(C(=O)NCCc2ccc(Cl)cc2)CC1,inactive: 101%
13,CCOc1ccc(NC(=O)N2CC=C(c3c[nH]c4ccccc34)CC2)cc1,inactive: 83%
14,Cc1ccc(C)c(NC(=O)Cn2cc(C(=O)C3CCCCC3)c3ccccc32)c1,inactive: 75%
15,Cc1ccc2[nH]c3c(=O)n(CC(=O)N(C)c4cc(Cl)ccc4C)ncc3c2c1,inactive: 89%
16,O=C(c1ccc2c(c1)N(Cc1cccc(Cl)c1)C(=O)c1ccccc1S2(=O)=O)N1CCCCC1,inactive: 92%
17,COc1cccc2c1Oc1ncccc1N(C(=O)CCC(=O)NCc1ccc(N(C)C)cc1)C2,inactive: 70%
18,COc1cccc(NC(=O)c2oc3ccccc3c2NC(=O)c2ccc(C(F)(F)F)cc2)c1,inactive: 60%
19,O=C(CN1CCCN(Cc2ccc(Cl)cc2)S1(=O)=O)Nc1ccccc1F,inactive: 66%

row,Structure (SMILES),survival
1,Cc1nc(N2CCCC2)c2c(C(=O)Nc3cccc(Cl)c3C)c(C)oc2n1,inactive: 63%
2,COc1ccc(NC(=O)CSc2nc3nc(C)c(Cc4ccc(C)cc4)c(C)n3n2)cc1OC,inactive: 67%
3,COc1ccc(Cl)cc1-n1nnc(-c2nc(-c3ccc4c(c3)OCO4)no2)c1C,inactive: 99%
4,CCCNC(=O)C1CCC(Cn2c(=O)c3sccc3n(Cc3ccccc3C)c2=O)CC1 (stereo unspecified),inactive: 78%
5,Cc1nc(SCC(=O)N2c3ccccc3CCc3ccccc32)n[nH]1,inactive: 102%
6,COc1cc2[nH]c(=O)n(Cc3ccc(C(=O)NCc4ccccc4)cc3)c(=O)c2cc1OC,inactive: 78%
7,COc1cc(Cl)c(C)cc1NC(=O)c1cc2ccc3cccnc3c2[nH]1,inactive: 71%
8,O=C(c1cc(=O)c2cc(Cl)ccc2o1)N(Cc1ccccc1)C1CCS(=O)(=O)C1 (stereo unspecified),inactive: 51%
9,CC(=O)OCc1cnc(C)c2oc(=O)c(C(=O)Nc3cccc(F)c3)cc12,inactive: 109%
10,CCCCN1CC(c2nc3ccccc3n2CCCCOc2ccc(C)cc2C)CC1=O (stereo unspecified),active: 13%
11,Cc1ccc(-n2ncc3c(NCCCN4CCOCC4)ncnc32)cc1Cl,inactive: 75%
12,O=C(NCCCc1nc2ccccc2n1Cc1cccc(Cl)c1)c1ccco1,active: 46%
13,Cn1ccc(-c2ccccc2)n1,inactive: 80%
14,Cc1cccc(C)c1NC(=O)c1csc2c1CCCC2,inactive: 90%
15,COc1ccccc1NC(=O)C(=O)c1cc(C)n(-c2ccccc2F)c1C,inactive: 93%
16,CCc1ccc(NC(=O)c2cc(S(=O)(=O)N3CCCCCC3)ccc2F)cc1,inactive: 99%
17,COc1ccc2c(c1)CC(NC(=O)Nc1cc(Cl)ccc1OC)CO2 (stereo unspecified),inactive: 92%
18,COc1cccc(C(=O)Nc2ccc(Cl)c(-c3nc4ccccc4[nH]3)c2)c1,inactive: 68%
